The campaign covered roughly 150,000 compounds. About 540 (0.36%) showed an effect of 50% or more. The list shows a part of the results.
The compounds below were run on Plasmodium falciparum (assay: Primary screen in NF54 nanoGlo assay, in single point, at 2uM, 72h; a lower Z score goes with more inhibition). Conditions: timepoint 72 hour.
Format: functional, Erythrocyte

SMILES	% Inhibition	Z score
Cc1nc(N2CCCC2)nc(C)c1NC(=O)c1cccc(F)c1	-5%	0.84
CCCOc1ccccc1[C@H]1CC(=O)Nc2c1c(C)nn2-c1nncc(-c2cccc(OC)c2)n1	15%	-2.83
CC(C)(C)OC(=O)c1ccc(CN)cc1	1%	-0.14
CC(C)n1cc(C(C)(C)NC(=O)Cn2ncn(C)c2=O)nn1	-19%	2.56
Cc1ccc(F)cc1NC(=O)N1C[C@H]2CCN(C)[C@H]2C1	-6%	0.74
COc1ccc(CNc2cn[nH]c(=O)n2)cc1	-14%	1.84
C[C@H]1c2cccn2CCN1CCC(=O)NC(=O)NC1CCCC1	-4%	0.48
CC(C)(C)C(=O)N1CCc2c(c(C(=O)O)nn2Cc2ccc(F)cc2)C1	-8%	1.63
Cc1n[nH]c([C@@H]2CCN(C(=O)c3cnc[nH]3)CCN2C(=O)Cc2ccccc2)n1	0%	0.08
CCOc1ccc(F)c(NC(=O)N2CC3(CC=CC3)[C@@H]2C(C)C)c1F	-8%	1.52
Cc1cncnc1-c1noc(-c2ccco2)n1	-2%	0.26
c1coc(CN2CC[C@H](c3ccnc(-c4ccc5c(c4)OCO5)c3)C2)c1	-17%	1.69
CC(=O)N[C@H]1CN(c2ncccc2C(N)=O)C[C@@H]1c1ccc(C)cc1	-7%	1.34
CCCS(=O)(=O)N1CC[C@H]2C(=O)N(Cc3ccc(F)cc3)CCN2CC1	-18%	2.47
O=C(Cc1ccsc1)N1CCC[C@H](c2[nH]ncc2-c2ccccc2)C1	-6%	1.22
CN(C(=O)[C@@H]1CCCCN1S(=O)(=O)c1ccc(Cl)s1)c1ccccc1	-13%	1.84
CC(C)CCn1ccc(NC(=O)N2CCC(c3ccc4cccnc4n3)CC2)n1	2%	-0.2
NC(=O)[C@@H]1CCCCN1C(=O)Cc1ccc(-c2ccccc2)cc1	-3%	0.41
O=C(CC[C@@H]1NC(=O)N(Cc2ccc3c(c2)OCO3)C1=O)Nc1ccc2c(c1)OCCO2	1%	-0.14
CN(C)c1ccccc1-c1ccc(CC(=O)O)cn1	-3%	0.51
O=C(NCCc1ccccc1)[C@@H]1C[C@H](n2cnnn2)CN1C/C=C/c1ccccc1	-6%	0.78

SMILES	% Inhibition	Z score
Cn1c(-c2ccc3c(c2)OCO3)cnc1NCc1cccc(Cl)c1	37%	-4.73
Cc1n[nH]c(C)c1CCN(C)Cc1ccc([C@@H]2CCCO2)s1	-6%	0.53
O=C(Nc1sc2c(c1C(=O)N1CCOCC1)CCCCC2)c1ccncc1	-12%	1.54
CN1CCCCCCN(C(=O)Nc2ccccc2)CCC1=O	-16%	2.15
O=C(NCC(Cc1ccccc1)Cc1ccccc1)N1CC[C@H](O)C(F)(F)C1	-4%	0.81
COc1cc(CN2CCN(C(=O)CCNC(=O)c3ccccc3C)CC2)cc(OC)c1	-1%	0.09
C[C@@H](C1CC1)N(CC(F)(F)F)C(=O)c1ccc2nnnn2c1	6%	-0.94
COc1ccc(-c2nnc(C)o2)cc1NC(=O)C[C@H](C)n1cccn1	-1%	0.12
CC1(C)C(NS(=O)(=O)N2CCCC2)C(C)(C)C1NS(=O)(=O)N1CCCC1 (stereo not drawn)	10%	-1.55
CNS(=O)(=O)c1cc(C(=O)NCC2(c3ccccc3)CC2)c(C)o1	9%	-1.28
Cc1cc(CN2CCC3(CCC(=O)N3C)CC2)[nH]n1	-6%	1.27
CCOc1cccc(CNC(=O)[C@H]2c3ccccc3CC(=O)N2CC)c1	0%	-0.04
Cc1c(C(C)N[C@@H]2CCCC[C@H]2NC(=O)OC(C)(C)C)cnn1C (stereo partly drawn)	-8%	1.01
CCn1c(CN2CCN(C(=O)c3ccco3)CC2)nc2cc(S(=O)(=O)N3CCCCC3)ccc21	-13%	2.53
C[C@H]1C(=O)N(C)C[C@H](CO)N1S(=O)(=O)c1ccc(F)cc1	-14%	1.68
COc1ccccc1N1CCN(c2ncccc2CNc2cccc(C#N)n2)CC1	13%	-1.84
Cc1ccc(NC(=O)Cn2nc3c(N4CCCCCC4)nccn3c2=O)c(Cl)c1	-21%	2.03
C[C@@H](C(=O)N(Cc1ccccc1)C1CCCC1)n1cccn1	-3%	0.43
COc1c(Cl)cc(NC(=O)N(C)Cc2nccs2)cc1Cl	9%	-0.88
CCNC(=O)CCC(=O)NC[C@H](Cc1ccccc1)C(=O)OCC	-8%	1.27
Cc1cc(NC(=O)CN2CCCCCC2CC(O)c2ccco2)no1 (stereo not drawn)	-6%	0.81

SMILES	% Inhibition	Z score
CC1CCN(C(=O)c2cccc3cn[nH]c23)CC1	0%	-0.03
CCn1cc(-c2c(-c3ccccc3)ncn2CCNc2cccnc2)c(C)n1	-16%	1.54
O=S(=O)(NCCN1CCCCCCC1)c1ccccc1	-1%	0.09
COc1cc2c(cc1OC)N(S(=O)(=O)c1ccc(C)cc1)CCCC2=O	-11%	1.32
COc1cccc([C@H]2OCCN(Cc3ccccc3)C(=O)c3[nH]c4ccccc4c32)c1	34%	-3.89
C#CCCC1(CCC(=O)N2CCO[C@H](c3c(F)cccc3Cl)C2)N=N1	-5%	0.61
COc1cc(OC)nc(N2CCN3C(=O)OC[C@H]3C2)n1	-4%	0.66
CCc1cccc(C)c1NC(=O)Cn1cc(-c2ccccc2)c2ncn(CC)c(=O)c21	4%	-0.57
CCNC(=O)C(C)(C)CNC(=O)C(CC)N1CCOC(CC)C1 (stereo not drawn)	-2%	0.28
CC(C)CNC(=O)[C@H](C)N(C)Cc1ccc(Cl)c(Cl)c1	2%	-0.26
CCC[C@H]1CN(c2nc3cc(C)ccc3o2)C[C@@H]1NS(C)(=O)=O	12%	-1.28
Cc1noc(C(C)C)c1NC(=O)c1ccc2[nH]cnc2c1	1%	-0.16
CN(C)[C@H]1CCN(C(=O)c2ccc(C(=O)c3cccc(O)c3)cc2)C1	-7%	0.75
C=CCCCS(=O)(=O)NCc1nnc2ccc(Cl)cn12	13%	-1.46
O=C(NCc1cccnc1)c1cc(F)c[nH]1	10%	-1.26
O=c1cc(C2CC2)ncn1CC1CCN(c2nc3ccc(F)cc3o2)CC1	-12%	1.77
O=C1c2ccccc2C(=O)N1c1ccc(S(=O)(=O)N(CCO)c2ccccc2)cc1	-37%	4.39
Cc1noc(-c2cncnc2NC2CCCC2)n1	1%	-0.14
CCN1C[C@@H](C(=O)NCC2(COc3ccccc3)CC2)CCC1=O	-6%	1.22
COc1ccccc1-c1cn2c(C(=O)N3CCCCC[C@@H]3CO)csc2n1	-9%	1.25
CN(C)c1ncc(C(=O)NCc2ccc3c(c2)OCO3)cn1	-2%	0.28

SMILES	% Inhibition	Z score
O=S(=O)(N1CCCCCC1)N1CCc2[nH]cnc2C1	-4%	0.7
CC(C)c1nc([C@H](C)NCc2nc(C(C)C)n3ccccc23)n[nH]1	3%	-0.5
C#CC[C@@]1(C(=O)O)CCCCN1C(=O)OC(C)(C)C	-12%	2.24
CO[C@@](F)(C(=O)Nc1c(Cl)cccc1Cl)C(F)(F)F	-8%	1.55
Cc1nn(C)c(C)c1[C@H]1OCC[C@@H]1CNC(=O)c1cc(O)ccn1	-9%	0.92
C[C@@H](C(=O)N1CCc2ccccc21)n1nc(-c2ccccc2)ccc1=O	3%	-0.58
C[C@@H](c1nc(-c2cccs2)no1)N1CCNC(=O)C1	-2%	0.26
Cc1ccc(NC(=O)Cn2cnc3c(c2=O)CCCC3)cc1Cl	1%	-0.13
Cc1ccc(-n2nc(CCc3ccccc3)nc2[C@@H]2COCCO2)cc1C	-11%	1.79
COc1ccccc1CC(=O)Oc1c(C)nn(C)c1C	-4%	0.57
O=C(COc1ccccc1)Nc1ccc([C@@H](O)[C@H]2COCC(=O)N2)cc1	30%	-3.5
O=C(Nc1cccnc1)c1ccc(S(=O)(=O)c2ccccc2)cc1	-15%	2.28
Cc1ccc(C(=O)N[C@H](c2cccs2)C2CCOCC2)cc1F	14%	-1.85
O=C(Nc1cccc2c1CCCC2)C1CCCC1	-6%	0.58
O=C(c1c(O)ccc2ccccc12)N1C[C@H]2C[C@H](O)[C@H](O)C[C@H]2C1	-14%	1.39
O=C(NC1CC1)[C@@H]1CCCN1c1ccnc(C2CCCC2)n1	-20%	3.3
Cc1nc(N2CCC[C@H](CNC(=O)c3ccco3)C2)ccc1F	-18%	2.24
CCN1CCc2c(OCC(=O)N3CCC(Cc4ccccc4)CC3)cccc2C1=O	20%	-3.44
CCCCN(CC(N)=O)Cc1cc(F)ccc1OC	-2%	0.33
O=C(NCCc1nccs1)[C@H]1C[C@@H](c2ccccc2)N2CCC[C@H]12	0%	-0.07
Oc1c(-n2cncn2)cnn1-c1ccc(OC(F)(F)F)cc1	10%	-1.33

Reference: ChEMBL document CHEMBL4888484, “Replenishing the malaria drug discovery pipeline: Screening and hit evaluation of the MMV Hit Generation Library 1 (HGL1) against asexual blood stage Plasmodium falciparum ,using a nano luciferase reporter read-out” (2022)
